According to the RNAGym collection of RNA variant scans (doi:10.7554/elife.90254):
Read counts are not given, so values of variants with three or more changes are uncertain.

B1: LINE1-mini (parent)
chain: GGCAGAGCUCAACACAGCGUGGCAAAGUGGCUGUGGCUAGACUGCC

Variants of: B1
Experiment: self-cleavage, relative activity (ratio to wild type); higher = more cleavage; in vitro, sequencing; the parent is a self-cleaving ribozyme

Row | Variant | self-cleavage
1 | GGCGGAGCCCACCACAGCGUGACAAAGUGGCUAUGGCUAGACUGCC | 0
2 | GGCGGAGCUCAACACAGCGUGGCAAAGUGGCGGUGGCAAGACUGCG | 0.01
3 | GGCGGAGCUCAACACAGCGUGGCAAAGUGGCUGUGGCAAGACUGCA | 0.09
4 | GGCUGAGCUCUACACAGCGUGGCAAAGUAGCUGUGGCUAGACUGCC | 0.03
5 | GGCUGAGCUCAGCACAUCGUGGCAAAGUGGCUGUGGCUAGACUGCC | 0.08
6 | GGCUGCGCUCAACAAAGCGUGGCAGAGUGGCUGUGGCUAGACUGCC | 0.07
7 | GGCUGGGCUCUACACAGCGUGGCAAGGUGGCUGUGGCUAGACUGUC | 0.01
8 | GGCUGAGCUCUACACAGCGUGGCACAGUGGCUGUGGCCAGACUGCC | 0
9 | GGCUGUGCUCAACACAGAGUGGCAAAGUGGCUGUGGCUAGACUGCC | 0.04
10 | GGCGGAGCUCAACACAGCGUGGCAAAGUGGCUGUGGCUAUACUGAC | 0.07
11 | GGCUGAGCUCACCACAGCCUAGCAAAGUGGCUGUGGUUAGACUGCC | 0
12 | GGCGGAGCUCAACACAGCGGGGCAAAGUGGCUGUGGCUAUACUGCC | 0.17
13 | GGCGGAGCUCAACACAGCGUGGCAAAGUGGCAGUUGGUAGACUGCC | 0.16
14 | GGCGGAGCUCAACACAGCGUGGCAAAGUGGCUCUGGCUAGACCGCG | 0.01
15 | GGCUGGGCUCAACACAGCGUGGCAAAGUGGCUGUGUCUAGACUGCC | 0.07
16 | GGCGGAGCGCAACACAGCGUGGCACAGUGGCUGUGGAUAGACUGCC | 0.03
17 | GGCUGCCCUCAACACAGCGUGGCAAAGUGGCUGUGGCUAGACUGCC | 0.21
18 | GGCUGAGCUCUACACAGCGUGGCAAAGUGGUUGUGGCUAGACUGCG | 0.01
19 | GGCGGAGCCCUACACAGCGUGGCCAAGUGGCUGUGGCUAAUCUGCC | 0.02

Row | Variant | self-cleavage
20 | GGCGGAGCUCAACACAGCGUGGCAAAGAGGCUGUGGAUAGACUGCC | 0.06
21 | GGCGGAGCUCAACACAGCGUGGCAAAGAGGCUGUGGGUAGACUGCC | 0.01
22 | GGCUGCCAUCAACACAGCGUGGCAAAGUGGCUGUGGCUAGUCUCCC | 0.04
23 | GGCUGAGCUCUACACAGCGAGGGAAAGUGGAUGUGGCUAGCCUGCC | 0.01
24 | GGCGGAGCUCAACACAGCGUGGCAAAGUGGCUGGGGCUAGACUACC | 0.01
25 | GGCUGAGCUCUACAUAGUGUGGCAAAGUGGCUGUGGCUAGACUGCC | 0.01
26 | GGCGGAGCACAACACAGCGUGGCAAAGUGGCUAUGGCUAGACUGCC | 0.14
27 | GGCUGAGCUCAUCACAGAGUGGCAAAGUGGCUGUGGCUAGACUGCC | 0.13
28 | GGCGGAGCUCAACACAGCGUGGCAAAGUGGCGGUGGCUAGACUCCC | 0.04
29 | GGCGGAGCUCAACACAGCGUGGCAAAGCGGCUGUGGCUAGAAUGCC | 0.22
30 | GGCUGAGCUCCACACAGCGUGGCAAAGUGGCUGUGGCUAAACUGCC | 0.02
31 | GGCGGAGCUCAACACAGCGUGGCAAAGUGGCUGUGUCUAGACGACC | 0.03
32 | GGCGGAGCGCAACACAGCGUGGCGAAGUGGCUGUGGCUAGACUGCC | 0.03
33 | GGCUGGGCUCAACACAGCGUGGCAAAGUGGCUGUUGCUAGACUGCC | 0.13
34 | GGCUGAGCUCUACACAGCCUGGCAAAAUGGCUGUGGAUAGACUGCC | 0.01
35 | GGCGGAGCUCAACACAGCGUGGCAAAGUGGCCGUGGCUAUACUGCC | 0
36 | GGCUGCGCUAAACAGAGCGUUGCAAAGUGGCUGUGGCUAGACUGCC | 0.02
37 | GGCGGAGCUCAACACAGCGCGGCAAAGUGACUGUGGCUGGACUGCC | 0.03
38 | GGCUGAGCUCAGCACAGCGUGGCGAAGUGGCUGCGGCUAGACUGCC | 0.06

Row | Variant | self-cleavage
39 | GGCUGAGCUCCACACAUCGUGGCAAAGUGGCUGUGGCUAGACUGCC | 0.05
40 | GGCGGAGCUCAACACAGCGUGGCAAAGUGGCUGUGACUAGACCACC | 0.09
41 | GGCUGAGCUCAGCACAGCGUUGCAAAGUGGCUGUGGCUAGACUGCC | 0.1
42 | GGCUGAGCUCUACACAGCGUCGCAAAGUUGCUGUGGCUAGACUGCC | 0
43 | GGCGGAGCGCAACACAGCGUGGCAAACUGGCUGUGGCUAGAUUGCC | 0.01
44 | GGCGGAGCUCAACACAGCGUGGCAAAGCUGCUGUGGCUAAACUGCC | 0.18
45 | GGCUGAGCUCUACACAGCGUGGCAAAUUGGCUAUGGCUAGAUUGGC | 0.01
46 | GGCGGAGCUCAACACAGCGAGGCAAAGUGGCUGUGGCUAGAAUGCC | 0.05
47 | GGCGGAGCUCAACACAGCGUGGCAAAGUGGCUGUAGCUAGACUGGC | 0.57
48 | GGCGGAGCUCAACACAGCGUGGCAAAGCCGCUGUGGCUAGACUGCC | 0.1
49 | GGCGGAGCUCAACACAGCGUGGCAAAGUGGCUGUAGCUAUACUGCA | 0.36
50 | GGCUGAGCUCCACACAGCGUGACAAAGUGGCUGUGGCUAGACUGCC | 0.02
51 | GGCUGAGCUCCACACAGCGUGCCAAAGUGGCUGUGGCUAGACUGCC | 0.01
52 | GGCGGAGCCCAACACAGCGUGGCACAGUGUCUGGGGCUAGAUUGCC | 0
53 | GGCUGAGCUCAGCACAGCGUGGCAAAGUGGCUGUGGCUAGACUGCA | 0.01
54 | GGCUGAGCUCAGCACAGCGUGGCAAGGUGGCUGUGGGUAGACUGCC | 0.05
55 | GGCUGAGCUCCACACAGAGGGGCAAAGUGGCUCUGGCUAGACUGCC | 0.01
56 | GGCUGAGCUCUACACUGGGUGGCAAAGUGGAUGUGGCUAGCCUUCC | 0.01
